In the supplement of paper PMC9446081:
In all, about 39,000 compounds went through this assay and about 220 (0.56%) showed activity. The list shows a part of the results.

test system: Escherichia coli K-12 BW25113; assay: relative growth (OD600 normalised to plate interquartile mean) (fraction); higher = less growth inhibition, active = 0.2 or less; settings: 50 µM; LB; incubation time: overnight (16-24 h)
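Note: static incubation at 37 °C against the wild-type strain, values averaged over two biological replicates.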

| SMILES | relative growth |
| --- | --- |
| COc1ccc(S(=O)(=O)N(C)C[C@@H]2Oc3ccc(NS(=O)(=O)c4cn(C)cn4)cc3C(=O)N([C@@H](C)CO)C[C@H]2C)cc1 | inactive: 0.989 |
| C[C@H](CO)N1C[C@H](C)[C@H](CN(C)Cc2ccccc2)OCCCC[C@H](C)Oc2ccc(NC(=O)c3ccccc3)cc2C1=O | inactive: 1.01 |
| C[C@H](CO)N1C[C@H](C)[C@H](CN(C)Cc2ccncc2)Oc2c(NS(=O)(=O)c3cccs3)cccc2C1=O | inactive: 0.945 |
| O=C(NC1CCCCC1)NC1CCCCC1 | inactive: 1.01 |
| CC12CCC3C(=CCc4cc(O)ccc43)C1CCC2=O (stereo not drawn) | inactive: 1.03 |
| C[C@@H]1CN([C@@H](C)CO)C(=O)c2cc(NC(=O)CCC(F)(F)F)ccc2O[C@H]1CN(C)S(=O)(=O)c1cn(C)cn1 | inactive: 0.996 |
| CCO[C@@H]1OC(C(=O)N2CCN(Cc3ccccc3)CC2)=C[C@H](c2cn(C(C)=O)c3ccccc23)[C@H]1CCCOC(=O)NCCCCCC(=O)NO | inactive: 1.01 |
| CC(=O)N[C@H](C)c1cn(C)nc1C | inactive: 1.03 |
| C[C@H]1CCCCO[C@H](CN(C)S(=O)(=O)c2cn(C)cn2)[C@@H](C)CN([C@@H](C)CO)C(=O)c2cc(NS(=O)(=O)c3cccs3)ccc2O1 | inactive: 0.986 |
| Cn1cnc(S(=O)(=O)N2C[C@@H](O)COC[C@H]3O[C@@H](CC(=O)NC4CCC4)CC[C@@H]32)c1 | inactive: 1.02 |
| COCC(=O)Nc1ccc2c(c1)OC[C@@H](C)N(Cc1cccc(F)c1)C[C@@H](C)[C@H](OC)CN(C)C2=O | inactive: 0.957 |
| COC(=O)c1c2oc(c1C(=O)OC)C(=O)N[C@H](Cc1ccccc1)Cn1cc(nn1)[C@@H](Cc1ccccc1)NC(=O)N[C@@H](CO)CC2 | inactive: 0.951 |
| C=C1CCC2C(CC2(C)C)C(=O)CCC1O (stereo not drawn) | inactive: 0.974 |
| C[C@@H]1CN([C@H](C)CO)C(=O)c2cccc(NC(=O)C3CCOCC3)c2O[C@@H]1CN(C)Cc1ccc(-c2ccccc2)cc1 | inactive: 1 |
| C[C@@H]1CCCCO[C@@H](CN(C)Cc2ccncc2)[C@@H](C)CN([C@H](C)CO)C(=O)c2cc(NC(=O)CCC(F)(F)F)ccc2O1 | inactive: 1.01 |
| C[C@@H]1CN([C@@H](C)CO)C(=O)c2cccc(NS(=O)(=O)c3ccc(F)cc3)c2O[C@H]1CN(C)Cc1ccncc1 | inactive: 1 |
| CN1C(=O)c2cc(NC(=O)c3cscn3)ccc2OC[C@@H]2O[C@@H](CC(=O)N3CCOCC3)CC[C@H]21 | inactive: 1.04 |
| O=C(O)CCCNc1n[nH]c(=O)[nH]c1=O | inactive: 0.997 |
